PMC8215545
Read-outs that look alike come from different tables or passages of the source. Results are given in words; binding and its absence hold for the method and conditions named. Binding seen in cells or lysates may run through a third protein. Some results given as binding are weak or reduced against the parent protein; the word gives no strength. For some assays here: Tags and fused reporters may be left off the sequences shown.

Chains of the proteins cited; added tags and fusions are not shown.
UniProt O14543: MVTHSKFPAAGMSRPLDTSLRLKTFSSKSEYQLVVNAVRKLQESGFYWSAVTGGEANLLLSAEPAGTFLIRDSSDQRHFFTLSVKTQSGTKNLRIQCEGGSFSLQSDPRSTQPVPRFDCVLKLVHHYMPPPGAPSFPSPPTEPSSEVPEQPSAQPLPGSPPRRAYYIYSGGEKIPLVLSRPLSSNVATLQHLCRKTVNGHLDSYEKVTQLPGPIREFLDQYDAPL

Key:
[1] = target: T1, FLAG-ASB6 wild type (human) (UniProt Q9NWX5); experiment: co-IP; HEK293T cells transfected with the indicated plasmids, treated with 10 μM MG132 for 10 h; lysis in EBC buffer; anti-FLAG M2 or anti-HA agarose beads 3 h, washed five times with NETN buffer; immunoblot
T1 sequence: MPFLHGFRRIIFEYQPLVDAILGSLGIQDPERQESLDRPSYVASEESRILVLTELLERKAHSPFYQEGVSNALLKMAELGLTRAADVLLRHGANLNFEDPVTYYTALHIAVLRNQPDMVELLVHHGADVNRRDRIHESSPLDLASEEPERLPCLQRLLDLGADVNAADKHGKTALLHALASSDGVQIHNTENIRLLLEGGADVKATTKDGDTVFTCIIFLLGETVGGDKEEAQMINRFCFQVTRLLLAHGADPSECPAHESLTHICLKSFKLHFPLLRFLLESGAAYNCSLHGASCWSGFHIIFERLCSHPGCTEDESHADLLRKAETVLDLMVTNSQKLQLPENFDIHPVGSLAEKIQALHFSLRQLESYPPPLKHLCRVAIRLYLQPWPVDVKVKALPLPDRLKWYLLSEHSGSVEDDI

SOCS3 = SOCS3 (UniProt O14543); experiment: as above
[2] = target: FLAG-EloB (Elongin B) (human) (UniProt Q15370); experiment: as above
[3] = target: FLAG-EloC (Elongin C) (human) (UniProt Q15369); experiment: as above
SOCS6 = target: T2, SOCS6 (UniProt O14544); experiment: as above
T2 sequence: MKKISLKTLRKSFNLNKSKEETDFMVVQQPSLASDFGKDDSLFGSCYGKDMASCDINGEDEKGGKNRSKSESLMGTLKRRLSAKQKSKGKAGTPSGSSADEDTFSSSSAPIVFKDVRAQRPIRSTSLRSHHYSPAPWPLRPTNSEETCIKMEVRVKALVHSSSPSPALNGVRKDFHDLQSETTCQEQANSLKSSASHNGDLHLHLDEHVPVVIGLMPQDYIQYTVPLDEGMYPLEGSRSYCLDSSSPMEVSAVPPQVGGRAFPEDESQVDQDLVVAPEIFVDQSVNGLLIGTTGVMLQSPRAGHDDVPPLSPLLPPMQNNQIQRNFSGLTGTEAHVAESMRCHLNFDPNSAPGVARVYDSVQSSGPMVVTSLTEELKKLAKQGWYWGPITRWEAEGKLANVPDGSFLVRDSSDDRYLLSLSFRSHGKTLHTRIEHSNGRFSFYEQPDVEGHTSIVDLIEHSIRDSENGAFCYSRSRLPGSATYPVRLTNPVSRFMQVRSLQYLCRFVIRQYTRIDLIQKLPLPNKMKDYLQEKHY

[4] = target: T3, endogenous ASB6 (Huh1 cells) (human (endogenous in Huh1)) (UniProt Q9NWX5); experiment: co-IP; endogenous proteins; Huh1 cells treated with 10 μM MG132 for 10 h, whole-cell lysate; ASB6 antibody for IP, Rabbit IgG as negative control; immunoblot
T3 sequence: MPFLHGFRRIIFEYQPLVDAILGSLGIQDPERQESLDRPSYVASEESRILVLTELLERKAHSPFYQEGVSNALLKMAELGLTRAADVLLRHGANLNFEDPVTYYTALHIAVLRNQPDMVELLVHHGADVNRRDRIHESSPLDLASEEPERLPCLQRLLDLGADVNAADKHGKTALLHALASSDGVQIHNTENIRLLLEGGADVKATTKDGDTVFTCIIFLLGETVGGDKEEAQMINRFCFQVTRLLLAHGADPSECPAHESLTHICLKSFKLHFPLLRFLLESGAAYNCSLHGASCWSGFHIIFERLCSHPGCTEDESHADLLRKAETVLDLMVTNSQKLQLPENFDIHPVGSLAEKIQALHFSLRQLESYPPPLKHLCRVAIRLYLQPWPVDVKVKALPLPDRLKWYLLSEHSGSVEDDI

[5] = target: HA-CUL5 (Cullin5) (human) (UniProt Q93034); experiment: co-IP; HEK293T cells transfected with the indicated plasmids, treated with 10 μM MG132 for 10 h; lysis in EBC buffer; anti-FLAG M2 or anti-HA agarose beads 3 h, washed five times with NETN buffer; immunoblot
[6] = target: FLAG-EloB (Elongin B) (human) (UniProt Q15370); experiment: as above; remark: listed apart in the source
[7] = target: FLAG-EloC (Elongin C) (human) (UniProt Q15369); experiment: as above; remark: listed apart in the source

HA-CUL5 (Cullin5) (from UniProt Q93034 1-780)
binding [1]: binds

HA-p62 (p62/SQSTM1, sequestosome-1, 440 amino acid isoform) (from UniProt Q13501 1-440)
binding [1]: binds
binding (SOCS3): no binding
binding [2]: binds
binding [3]: binds
binding (SOCS6): no binding

endogenous p62/SQSTM1 (Huh1 cells) (from UniProt Q13501 1-440)
binding [4]: binds

p62S (shorter p62 isoform, 356 aa, lacks the N-terminal PB1 domain) (from UniProt Q13501-2 1-356)
binding [1]: binds
binding [5]: binds

B1: HA-ASB6 (protein, UniProt Q9NWX5 1-421)
chain: MPFLHGFRRIIFEYQPLVDAILGSLGIQDPERQESLDRPSYVASEESRILVLTELLERKAHSPFYQEGVSNALLKMAELGLTRAADVLLRHGANLNFEDPVTYYTALHIAVLRNQPDMVELLVHHGADVNRRDRIHESSPLDLASEEPERLPCLQRLLDLGADVNAADKHGKTALLHALASSDGVQIHNTENIRLLLEGGADVKATTKDGDTVFTCIIFLLGETVGGDKEEAQMINRFCFQVTRLLLAHGADPSECPAHESLTHICLKSFKLHFPLLRFLLESGAAYNCSLHGASCWSGFHIIFERLCSHPGCTEDESHADLLRKAETVLDLMVTNSQKLQLPENFDIHPVGSLAEKIQALHFSLRQLESYPPPLKHLCRVAIRLYLQPWPVDVKVKALPLPDRLKWYLLSEHSGSVEDDI
binding [6]: binds
binding [7]: binds
